Here are results for 42 molecules from ChEMBL document CHEMBL4888484, “Replenishing the malaria drug discovery pipeline: Screening and hit evaluation of the MMV Hit Generation Library 1 (HGL1) against asexual blood stage Plasmodium falciparum ,using a nano luciferase reporter read-out” (2022).

Molecules are shown by their SMILES. Out of some 150,000 compounds screened, about 540 (0.36%) showed an effect of 50% or more. The list shows a part of the results.

For this test, the system named is Plasmodium falciparum. Put plainly: Primary screen in NF54 nanoGlo assay, in single point, at 2uM, 72h; a lower Z score goes with more inhibition. As to conditions: timepoint 72 hour. The format is functional, Erythrocyte.
Turning to `CC(=O)N1CCC(CC(=O)Nc2cc(Cl)cc(Cl)c2)(N2Cc3ccccc3C2=O)CC1`, the % Inhibition (in general, the change of the read-out against control, counted positive when it falls) is -7% and the Z score was found to be 1.19.

Consider `Cc1cc(NCC(=O)Nc2ccn(C)n2)nc(C2CCC2)n1`, for which the “% Inhibition” value was -6% and the Z score was determined as 0.95.

Turning to `N#Cc1ccc(CN2CCN3C(=O)c4ccccc4OCC[C@@H]4CC[C@@H](n5cc(CN6CCOCC6)nn5)[C@@H](CNC(=O)[C@@H]3C2)O4)cc1`, the “% Inhibition” value is given as -4% and the Z score worked out at 0.55.

As for `Cc1c(CC(=O)N2CCC(O)CC2)c2c(n1CCc1ccccc1)CCCC2=O`, the “% Inhibition” value is -13% and the Z score is reported as 1.15.

Regarding `Nc1nc(N2CCC[C@H](c3nccn3CC3CC3)C2)c2nc[nH]c2n1`, the “% Inhibition” value amounted to 11% and the Z score is on record as -1.54.

On to `COc1ccc(S(=O)(=O)N2CCC3(CC2)C[C@@H]3c2nnc3n2CCCCC3)cc1C`, for which the “% Inhibition” value was -4% and the Z score is listed as 0.64.

As to `COc1cccc(C(=O)N2CC[C@H](Oc3cnccn3)C2)c1OC`, the “% Inhibition” value is recorded as -5% and the Z score came out at 0.74.

As to `CCO[C@@H](C)C(=O)NCCCn1cccn1`, the “% Inhibition” value is given as 1% and the Z score is given as -0.1.

`CC(C)OC[C@@H](O)CN1CCCS1(=O)=O`: the “% Inhibition” value is on record as -4% and the Z score is recorded as 0.73.

As to `CCC#CCN1CCC(CCNC(C)=O)CC1`, the “% Inhibition” value is reported as -11% and the Z score was found to be 1.71.

`O=C(NCCc1cn[nH]c1)[C@@H]1CCC[C@H](O)C1`: the “% Inhibition” value was -13% and the Z score came to 1.28.

Regarding `O=C(C[C@H]1COc2ccc(Cl)cc2N1Cc1ccc(F)cc1)Nc1nccs1`, the “% Inhibition” value is -11% and the Z score is listed as 1.53.

As for `Cc1nc(C)c(C)c(N2CCC[C@H](c3cn(C)nn3)C2)n1`, the “% Inhibition” value is recorded as -5% and the Z score was found to be 0.95.

With `Cc1nn(C)c(C)c1[C@H]1OCC[C@@H]1NC(=O)CC1CC2CCC1C2` (some centres undefined), the “% Inhibition” value was 2% and the Z score is listed as -0.2.

Take `CN(Cc1csc(-c2cccs2)n1)C1Cc2ccccc2C1`: the “% Inhibition” value is -2% and the Z score worked out at 0.21.

In the case of `O=C(NCc1ccccc1)c1cc[n+](Cc2cccc(C(F)(F)F)c2)cc1`, the “% Inhibition” value is listed as -8% and the Z score is given as 0.97.

On to `Cc1cc2[nH]cc(C(=O)N3CCC(c4nccn4CC4CC4)CC3)c(=O)n2n1`, for which the “% Inhibition” value is listed as -19% and the Z score was determined as 2.06.

On to `COc1ccc(C(=O)N(Cc2cc(NC(=O)C(C)C)ccc2N(C)C)C[C@H]2CCCO2)cc1`, for which the “% Inhibition” value is reported as -18% and the Z score amounted to 2.49.

`COc1cccc(CN2C(=O)CCCC[C@H]2C(=O)NCC(C)C)c1`: the “% Inhibition” value came to 2% and the Z score is -0.27.

Consider `CC(C)c1ccoc1C(=O)N1C[C@H](CS(N)(=O)=O)[C@@H](C)C1`, for which the “% Inhibition” value is -14% and the Z score is 1.43.

Regarding `CN(Cc1nccn1C)Cc1nnnn1CC(F)(F)F`, the “% Inhibition” value was 7% and the Z score is on record as -0.8.

In the case of `CCc1ccc(Br)cc1C(=O)N1CC(C)(C(N)=O)C1`, the “% Inhibition” value is on record as -2% and the Z score is 0.25.

For the molecule `CC(C)CC1(CNC(=O)N(C)Cc2ncc[nH]2)CCC1`, the “% Inhibition” value worked out at 1% and the Z score is -0.13.

For `O=C(Cc1ccc2cn[nH]c2c1)N1CC[C@H](n2cccn2)C1`, the “% Inhibition” value was -9% and the Z score was 1.

`CCc1cc(C(=O)N2CCC[C@@H]2COC)cc(=O)[nH]1`: the “% Inhibition” value was -10% and the Z score is 1.6.

On to `CCN1CC2(CCN(c3ncc(OC)cn3)CC2)CC1=O`, for which the “% Inhibition” value is on record as -2% and the Z score came to 0.23.

In the case of `COc1ccc(-c2nn(-c3ccccc3C)cc2CN2CCC[C@@H]2CCO)cc1F`, the “% Inhibition” value is listed as -1% and the Z score came to 0.16.

On to `Cc1ccc(CN[C@@H]2CO[C@H](CNC(=O)N3CCOCC3)[C@H]2O)cc1`, for which the “% Inhibition” value is 5% and the Z score is recorded as -0.62.

With `CC(C)(C)CN1CC[C@H](C2CCN(c3ncccc3C(N)=O)CC2)C1`, the “% Inhibition” value is recorded as -1% and the Z score turned out to be 0.19.

Regarding `CC1C(C(F)(F)F)OCCN1C(=O)Nc1cnc(CC2CC2)nc1` (centres undefined), the “% Inhibition” value was -3% and the Z score came to 0.49.

With `CC(C)(C)c1cnc(CNC2(c3ccccc3)CC2)o1`, the “% Inhibition” value was -21% and the Z score turned out to be 3.03.

In the case of `CC(CC(=O)N1CCC(C)C(O)C1)C(=O)c1ccc(Cl)cc1` (centres undefined), the “% Inhibition” value is on record as -8% and the Z score came out at 1.19.

Consider `Cc1noc(C)c1CN(C)C(=O)Nc1ccc(C(F)(F)F)cc1`, for which the “% Inhibition” value is listed as -1% and the Z score is 0.17.

For `C1CN(CCN2CCOCC2)CCO1`, the “% Inhibition” value is reported as -34% and the Z score is 4.05.

As for `Cc1cc2c(cc1-c1ccnc3nc(-c4cccnc4)nn13)[C@@H](C)CC(C)(C)N2`, the “% Inhibition” value is reported as -11% and the Z score came out at 1.44.

Regarding `Cc1cccnc1NC(=O)N[C@@H](Cc1ccccc1)C1CC1`, the “% Inhibition” value was -2% and the Z score was 0.25.

Turning to `CNc1nc(C(=O)N2CCN(C)[C@@]3(CCNC(=O)CC3)C2)cs1`, the “% Inhibition” value was -3% and the Z score was found to be 0.51.

For the molecule `CS(=O)(=O)c1ccc(CN2CCC[C@H]2COc2ccccc2)o1`, the “% Inhibition” value came to 3% and the Z score was -0.36.

In the case of `Cn1cncc1CNC(=O)c1ncccc1O`, the “% Inhibition” value came to 2% and the Z score is -0.3.

In the case of `Cc1ccc(Nc2nc(=O)[nH]nc2C)c(C)c1`, the “% Inhibition” value is 0% and the Z score was determined as 0.01.

As to `CCOCCN1CCN(C(=O)c2ccon2)CC1`, the “% Inhibition” value is -8% and the Z score is listed as 1.46.

Turning to `O=C(c1ccc2[nH]ccc2c1)N1CCN(C(=O)c2cc3n(n2)CCCC3)CC1`, the “% Inhibition” value is reported as -7% and the Z score was 1.02.
